According to the supplement of paper PMC7826260:
The other results are listed elsewhere or left out. Viral Rep nickase domains cut single-stranded DNA in vitro (3 µM enzyme, 1 h, 37 °C); shown is the middle of each 90-letter strand. Numbers give uncut DNA relative to the enzyme-free pool, as log2; the lower, the more was cut; hits are not called. Reads are scaled to the total; values above 0 arise when much of the pool is cut.

Key:
Assay in all cases: uncleaved DNA left, log2 of reads against the no-enzyme library (log2 ratio); higher = less cleavage (more negative = more Rep cleavage of the k-mer); sequences stand for … in CTCGTCCG…ACCGGAGA
[1] = test system: T1, Rep nickase domain of Muscovy duck circovirus
T1 sequence (residues 1-111, tag not shown): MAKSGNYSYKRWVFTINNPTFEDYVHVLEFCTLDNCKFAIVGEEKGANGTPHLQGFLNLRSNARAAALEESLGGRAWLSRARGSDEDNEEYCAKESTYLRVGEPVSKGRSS
Procedure: (§1)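 A pool of 90-nt single-stranded DNAs with seven random bases just before the constant AC of the nick site (name = the seven bases) was cut by 3 µM recombinant His6-SUMO-tagged Rep nickase domain (300 nM DNA, 50 mM HEPES pH 8.0, 50 mM NaCl, 1 mM MnCl2, 1 h, 37 °C, three replicates). Uncut DNA was amplified and sequenced.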

[2] = test system: T2, Rep nickase domain of banana bunchy top virus
T2 sequence (residues 1-94, tag not shown): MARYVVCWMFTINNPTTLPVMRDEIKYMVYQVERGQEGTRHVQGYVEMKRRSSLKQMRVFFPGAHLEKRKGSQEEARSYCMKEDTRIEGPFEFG
Procedure: as §1

[3] = test system: T3, Rep nickase domain of cabbage leaf curl virus
T3 sequence (residues 1-116, tag not shown): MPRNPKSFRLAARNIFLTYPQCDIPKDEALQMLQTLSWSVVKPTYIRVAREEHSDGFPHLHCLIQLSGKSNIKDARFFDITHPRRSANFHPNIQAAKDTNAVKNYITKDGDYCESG
Procedure: as §1

[4] = test system: T4, Rep nickase domain of chickpea chlorotic dwarf virus
T4 sequence (residues 1-124, tag not shown): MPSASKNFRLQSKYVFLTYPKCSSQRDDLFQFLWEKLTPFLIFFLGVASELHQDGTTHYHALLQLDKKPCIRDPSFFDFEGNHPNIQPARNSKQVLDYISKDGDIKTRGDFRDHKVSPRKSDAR
Procedure: as §1

[5] = test system: T5, Rep nickase domain of faba bean necrotic yellows virus
T5 sequence (residues 1-98, tag not shown): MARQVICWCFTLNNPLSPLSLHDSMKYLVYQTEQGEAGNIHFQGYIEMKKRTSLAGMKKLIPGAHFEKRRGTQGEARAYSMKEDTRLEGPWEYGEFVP
Procedure: as §1

[6] = test system: T6, Rep nickase domain of maize striate mosaic virus
T6 sequence (residues 1-117, tag not shown): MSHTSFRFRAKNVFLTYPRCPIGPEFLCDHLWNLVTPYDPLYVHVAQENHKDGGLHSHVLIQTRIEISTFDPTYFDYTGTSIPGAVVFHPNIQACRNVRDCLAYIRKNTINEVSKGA
Procedure: as §1

[7] = test system: T7, Rep nickase domain of porcine circovirus 2
T7 sequence (residues 2-116, tag not shown): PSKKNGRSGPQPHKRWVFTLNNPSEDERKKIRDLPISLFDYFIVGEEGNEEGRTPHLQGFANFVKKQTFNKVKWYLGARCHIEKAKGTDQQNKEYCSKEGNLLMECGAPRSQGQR
Procedure: as §1

[8] = test system: T8, Rep nickase domain of tomato golden mosaic virus
T8 sequence (residues 1-124, tag not shown): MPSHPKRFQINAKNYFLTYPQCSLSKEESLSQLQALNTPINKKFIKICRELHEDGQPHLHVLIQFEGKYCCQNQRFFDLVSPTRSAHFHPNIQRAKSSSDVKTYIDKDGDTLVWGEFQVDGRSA
Procedure: as §1

[9] = test system: T9, Rep nickase domain of tomato yellow leaf curl virus
T9 sequence (residues 1-136, tag not shown): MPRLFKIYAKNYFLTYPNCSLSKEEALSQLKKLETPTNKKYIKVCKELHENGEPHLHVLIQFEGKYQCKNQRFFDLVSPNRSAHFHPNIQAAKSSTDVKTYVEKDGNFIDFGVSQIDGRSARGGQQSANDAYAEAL
Procedure: as §1

[10] = test system: T10, Rep nickase domain of wheat dwarf virus
T10 sequence (residues 1-137, tag not shown): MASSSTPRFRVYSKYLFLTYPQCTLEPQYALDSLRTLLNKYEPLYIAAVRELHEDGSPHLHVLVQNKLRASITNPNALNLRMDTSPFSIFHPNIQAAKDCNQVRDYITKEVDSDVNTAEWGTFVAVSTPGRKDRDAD
Procedure: as §1

Row | Sequence | uncleaved DNA left (log2) [1] | uncleaved DNA left (log2) [2] | uncleaved DNA left (log2) [3] | uncleaved DNA left (log2) [4] | uncleaved DNA left (log2) [5] | uncleaved DNA left (log2) [6] | uncleaved DNA left (log2) [7] | uncleaved DNA left (log2) [8] | uncleaved DNA left (log2) [9] | uncleaved DNA left (log2) [10]
1 | AGCGTTT | 0.0933 | 0.0705 | -0.0367 | -0.484 | -0.00858 | 0.668 | -0.552 | 0.0605 | 0.0622 | 0.139
2 | ATATAAA | -0.0415 | -0.155 | -0.148 | -0.195 | -0.048 | -0.696 | 0.0027 | -0.0137 | -0.117 | 0.0884
3 | CAGACCG | 0.0381 | 0.101 | -0.313 | -0.315 | -0.0432 | -0.69 | 0.0811 | 0.0215 | -0.0295 | -0.0112
4 | GCGCGTA | -0.106 | -0.0448 | -0.194 | -0.322 | -0.0339 | -0.363 | 0.00161 | 0.00683 | -0.107 | -0.109
5 | TTTGATC | 0.121 | -0.0763 | 0.173 | -0.215 | -0.0253 | -0.578 | -0.01 | -0.0831 | 0.00523 | 0.0365
6 | ATGACGA | 0.0261 | 0.0718 | 0.0689 | 0.0615 | 0.0687 | -0.574 | 0.0832 | 0.0661 | 0.0642 | 0.0318
7 | TGAGTCC | -0.0578 | 0.0216 | 0.185 | 0.145 | -0.0342 | 0.374 | -0.228 | -0.0381 | -0.0401 | -0.123
8 | CTGTGAA | 0.0911 | -0.139 | -0.104 | -0.0372 | 0.0162 | -0.483 | -0.0178 | -0.00152 | 0.112 | -0.111
9 | TGTCGGG | 0.122 | -0.0521 | 0.00153 | 0.067 | -0.113 | -0.373 | -0.055 | -0.0453 | -0.111 | -0.092
10 | ATACGCG | 0.00736 | 0.0396 | -0.352 | 0.951 | 0.133 | 0.113 | 0.124 | 0.0101 | -0.0481 | -0.0817
11 | GATGTAA | 0.0746 | 0.113 | 0.357 | 0.617 | 0.135 | 1.4 | 0.0915 | 0.147 | 0.0836 | 0.0552
12 | ACTTAAG | 0.00121 | 0.0958 | -0.912 | -0.0587 | -0.0476 | -0.949 | 0.22 | 0.0664 | 0.125 | -0.0389
13 | AGAGGGC | 0.0525 | -0.0179 | 0.29 | 0.699 | -0.0321 | 0.44 | 0.137 | 0.19 | -0.000631 | 0.0459
14 | AAGATTG | -0.0676 | -0.005 | 0.0142 | 0.687 | 0.0232 | 1.18 | 0.164 | 0.182 | -0.133 | 0.00831
15 | TTATAGT | -3.5 | -0.0263 | -3.12 | -3.13 | 0.00267 | -1.66 | -3.39 | -1.48 | 0.0412 | -1.62
16 | CCACCTG | -0.00436 | -0.0194 | -0.141 | -0.134 | -0.00434 | 0.00123 | -0.185 | -0.116 | -0.0225 | 4e-05
17 | CATTATG | 0.0658 | 0.023 | -0.818 | -0.445 | 0.0899 | -0.989 | 0.258 | 0.021 | 0.199 | 0.0388
18 | CGTTACT | -2.88 | -0.63 | -0.12 | -2.35 | 0.0262 | -0.125 | -2.98 | 0.00308 | 0.0955 | -0.128
19 | AGCTCAA | -0.0963 | 0.0181 | 0.0449 | 0.351 | 0.0158 | 0.151 | -0.497 | -0.0286 | -0.154 | -0.0179
20 | TATTTGT | -3.43 | -3.29 | -0.601 | -1.82 | -0.0799 | -1.02 | -3.37 | -0.0954 | -0.0822 | -0.202
21 | ACAGTAC | 0.0559 | 0.0431 | -0.21 | -0.773 | 0.0751 | -0.78 | 0.126 | 0.191 | -0.141 | 0.00709
22 | TCCAGAT | 0.0465 | 0.0307 | 0.218 | 0.82 | -0.00801 | 1.26 | 0.1 | -0.0178 | -0.192 | -0.0933
23 | AAATAGT | -3.96 | -0.792 | -4.42 | -3.57 | -0.0745 | -3.78 | -4.48 | -3.96 | -0.551 | -4.11
24 | CTCATCC | 0.139 | 0.0221 | 0.021 | -0.154 | -0.0556 | -0.557 | -0.00721 | -0.0804 | 0.0221 | -0.0215
25 | CTCAGAG | -0.00411 | 0.00827 | -0.66 | -0.465 | 0.164 | -1 | 0.0857 | 0.0015 | 0.0594 | 0.00318
26 | GTCTGTG | 0.0877 | 0.0506 | 0.214 | 0.444 | 0.134 | 0.748 | 0.196 | 0.137 | 0.111 | 0.0806
27 | CCGTTTT | -2.38 | -0.361 | -0.381 | -1.87 | -0.452 | -0.158 | -2.83 | -0.291 | -0.138 | -0.712
28 | ACACATA | -0.0126 | -0.143 | -0.333 | -1.05 | -0.0426 | -0.645 | 0.0666 | 0.00997 | -0.166 | 0.0494
29 | ATAGTCT | -0.129 | -0.107 | -0.386 | -2.37 | -0.132 | -0.972 | -0.234 | -0.112 | -0.142 | -0.202
30 | TCCGAGT | -0.00996 | -0.128 | 0.595 | 1.06 | 0.0405 | 1.11 | -0.0744 | -0.171 | 0.0028 | 0.0677
